From paper PMC4336329 (PLoS ONE, 2015)
The whole screen tested about 310,000 compounds, of which about 14,000 (4.5%) showed an effect of 50% or more. The effect is printed as a negative number. The list shows a part of the results.

What follows are compounds tested against human ether-à-go-go-related gene (hERG) potassium channel (human, UniProt Q12809) (assay: primary screen, population patch clamp on CHO cells stably expressing hERG).
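Further: peak tail current of the secondary pulse compared with the same well before compound.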

Sequence of human ether-à-go-go-related gene (hERG) potassium channel (Q12809 whole entry, looked up): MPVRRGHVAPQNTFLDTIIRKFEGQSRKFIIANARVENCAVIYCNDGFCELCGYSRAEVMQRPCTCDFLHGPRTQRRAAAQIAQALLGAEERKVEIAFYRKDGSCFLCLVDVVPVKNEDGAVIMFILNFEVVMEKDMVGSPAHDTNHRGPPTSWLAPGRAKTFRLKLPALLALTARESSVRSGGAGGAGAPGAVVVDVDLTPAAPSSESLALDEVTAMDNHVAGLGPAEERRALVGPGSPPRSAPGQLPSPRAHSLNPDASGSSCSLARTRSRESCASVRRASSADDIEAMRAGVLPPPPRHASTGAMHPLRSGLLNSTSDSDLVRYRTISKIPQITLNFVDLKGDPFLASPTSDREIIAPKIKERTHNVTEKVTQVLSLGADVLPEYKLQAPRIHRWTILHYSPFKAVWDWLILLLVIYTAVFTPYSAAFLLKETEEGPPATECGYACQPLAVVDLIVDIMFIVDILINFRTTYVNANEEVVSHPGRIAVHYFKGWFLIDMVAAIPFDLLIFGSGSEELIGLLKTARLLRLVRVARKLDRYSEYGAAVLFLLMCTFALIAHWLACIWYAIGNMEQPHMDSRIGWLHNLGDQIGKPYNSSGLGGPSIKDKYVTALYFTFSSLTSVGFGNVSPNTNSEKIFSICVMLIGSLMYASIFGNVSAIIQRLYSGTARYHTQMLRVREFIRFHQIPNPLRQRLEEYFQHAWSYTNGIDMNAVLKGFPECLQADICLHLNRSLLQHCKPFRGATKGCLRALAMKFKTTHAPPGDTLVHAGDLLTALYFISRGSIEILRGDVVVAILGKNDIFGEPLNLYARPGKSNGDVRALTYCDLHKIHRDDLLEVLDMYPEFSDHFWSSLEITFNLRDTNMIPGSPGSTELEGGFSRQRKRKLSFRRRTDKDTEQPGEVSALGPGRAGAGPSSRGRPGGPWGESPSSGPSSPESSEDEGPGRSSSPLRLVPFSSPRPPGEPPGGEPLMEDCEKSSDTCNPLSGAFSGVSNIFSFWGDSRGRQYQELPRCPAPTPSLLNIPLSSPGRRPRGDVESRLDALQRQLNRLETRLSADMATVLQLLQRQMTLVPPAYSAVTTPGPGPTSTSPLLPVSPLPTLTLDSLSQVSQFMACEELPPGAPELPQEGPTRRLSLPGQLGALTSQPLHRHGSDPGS

| Compound | hERG current change (%, negative = inhibition) at 10uM |
| --- | --- |
| COc1ccc(CC(=O)NC(=S)Nc2cccc(CO)c2)cc1 | -5.99% |
| Cc1ccc(N(C(=O)C(F)(F)F)C(C(=O)NC2CCCCC2)c2cccs2)cc1 (stereo not shown) | 3.86% |
| CN1C(=O)/C(=C/c2coc3ccc(O)cc3c2=O)SC1=S | 14.9% |
| CCOC(=O)c1c(C)nn(-c2ncccc2NC(=O)CCC(=O)O)c1C | 14.9% |
| CC1CCCCN1C(=O)COC(=O)C1CCN(S(=O)(=O)c2ccc(Cl)c(C(F)(F)F)c2)CC1 (stereo not shown) | -7.37% |
| Cc1cc(=O)oc(C)c1C(=O)N1CCN(Cc2ccc3c(c2)OCO3)CC1 | 8.2% |
| Brc1ccc(/C=N/Nc2ccccn2)cc1 | 11.4% |
| CCOC(=O)C1=C(C)NC(C)=C(C(=O)OCC)C1C(=O)OCC(=O)NC(C)C | 2.31% |
| CCCCCCOc1ccc(C(=O)n2cnc(N)n2)cc1 | 1.05% |
| COc1cccc(-c2cc(C(F)(F)F)n3nc(N)nc3n2)c1 | 0.86% |
| Nc1ncnc2c1ncn2CCOc1ccccc1 | 5.18% |
| Cc1cnc(C(=O)OC(C)C(=O)Nc2ccc(Oc3ccccc3)cc2)cn1 (stereo not shown) | 6.07% |
| COc1ccccc1C(=O)NCC(c1cccs1)N1CCc2ccccc21 (stereo not shown) | 1.26% |
| O=C(NCc1ccccc1)c1ccc[n+]([O-])c1 | 30.8% |
| COc1cc([N+](=O)[O-])ccc1N1C(=O)CC(Sc2nccc(C)n2)C1=O (stereo not shown) | -18.3% |
| CCCCCc1c(C)nc(Nc2ccccc2)[nH]c1=O | 5.44% |
| Cc1cc(C)n(-c2n[nH]c(=O)c3ccccc23)n1 | 5.06% |
| COCc1c(C(=O)N/N=C(\C)c2ccncc2)nnn1-c1nonc1N | 7.11% |
| CCC(C(=O)NCc1cccs1)n1nc(C)n2c(cc3occc32)c1=O (stereo not shown) | 0.0905% |
| COc1ccc(/C=N/Nc2ccc(C(F)(F)F)cc2[N+](=O)[O-])cc1O | 4.09% |
| CCN(CC(=O)NC1CCCC1)S(=O)(=O)c1ccc(C)cc1 | -27.1% |
| COCCSc1ccccc1C(=O)Nc1ccccc1C#N | -4.85% |

| Compound | hERG current change (%, negative = inhibition) at 10uM |
| --- | --- |
| Cc1cc(C)cc(NC(=O)C(OC(=O)Cn2cnc3c2c(=O)n(C)c(=O)n3C)c2ccccc2)c1 (stereo not shown) | -69.7% |
| CCc1nc2c(cnn2-c2ccc(F)cc2)c(=O)n1-c1ccc(N2CCC(C)CC2)cc1 | 17.1% |
| O=C(Nc1nc2c(s1)C(=O)CCC2)c1ccccc1 | 17.4% |
| COc1ccc(CCNC(=O)c2ccc(Cl)c(S(=O)(=O)N3CCCCCC3)c2)cc1 | -34.2% |
| C=CCc1c(C)nc(SCc2ccccc2)[nH]c1=O | 2.02% |
| CCCC(=O)Nc1ccc2c(c1)nc(CN1CCN(C(=O)OCC)CC1)n2C | 19.7% |
| O=C(NC1CCN(C(=O)Nc2ccccc2Cl)CC1)c1ccccc1 | 4.22% |
| Cc1ccc([N+](=O)[O-])cc1NC(=O)CN(C(=O)c1ccc(Cl)cc1)C1CCCCC1 | -15.1% |
| Cn1nnnc1SCCNC(=O)C1CCC(=O)N(Cc2ccc(Cl)cc2)C1 (stereo not shown) | -15.2% |
| Cc1ccc(-n2c(=O)c3cc4c(=O)n(-c5ccc(C)c(C)c5)c(=O)c4c(C(=O)c4ccc(C(=O)O)cc4)c3c2=O)cc1C | 29.8% |
| Cc1ccc2c(c1)=C(c1sc(N(C)c3ccc(O)cc3)nc1O)C(=O)N=2 | 19.9% |
| COc1ccc(CCOC(=O)c2ccc(NC(=O)CC#N)cc2)cc1 | 23.8% |
| O=c1cnnc(NCc2ccccc2)[nH]1 | 14.9% |
| CCOC(=O)c1cn(Cc2ccccc2)c2cc(C)nn2c1=O | 3.41% |
| CCOC(=O)c1[nH]c2ccc(OC)cc2c1NC(=O)NC(C)C | 14.6% |
| CSc1ccc(CCNC(=O)c2ccc(CS(=O)Cc3ccc(Cl)cc3)o2)cc1 (stereo not shown) | -15.1% |
| COc1ccc(-c2nc3c4ccccc4[nH]c(=O)n3n2)cc1 | 6.03% |
| Brc1ccc2c(c1)C(OC1CN3CCC1CC3)c1ccccc1CS2.O=C(O)/C=C\C(=O)O (stereo not shown) | -71.4% |
| COc1ccc(NC(=S)NNC(=O)COc2ccc(Cl)cc2Cl)cc1 | 26.5% |
| COC(=O)C1=CN(C2CC2)C=C(C(=O)OC)C1c1ccc(C(F)(F)F)cc1 | -16% |
| O=C(CCCc1ccccc1)Nc1ccc(S(=O)(=O)N2CCOCC2)cc1 | -40.6% |
